Test results from US20220031652A1, “USE OF AN ORGANOMETALLIC COMPOUND AS A DNA-DEMETHYLATING AGENT” (UNIVERSITE DE LORRAINE, priority 2018, published 2022).

Tests used:
MDA-MB231 cells [1] = settings: positive control, 5 μM 72 h
[2] = test system: ERα expression in MDA-MB231 cells; settings: cited from earlier work
MDA-MB231 cells [3] = settings: tamoxifen only, 48 h

Nc1ncn([C@@H]2O[C@H](CO)[C@@H](O)[C@H]2O)c(=O)n1 [5-azacytidine]
overall percentage of methylation of the genome (MDA-MB231 cells [1]): reduce the overall percentage of methylation of the genome

Nc1ncn([C@H]2C[C@H](O)[C@@H](CO)O2)c(=O)n1 [5aza-2-deoxycytidine]
expression of ERα [2]: reinduce the expression of ERα

CC/C(=C(\c1ccccc1)c1ccc(OCCN(C)C)cc1)c1ccccc1 [tamoxifen]
sensitivity of the cells to tamoxifen alone (MDA-MB231 cells [3]): insensitive
